{"source": "paper PMC10668032", "note": "This is one part of the list. At the low end of the ranking, values are background and their order means little."}
{"target": "SIX1-Q177R homeodomain (UniProt Q15475)", "assay": "universal protein binding microarray", "details": "Universal all-10-mer PBM (8x60K, AMADID 030236), 300 nM GST-tagged protein, Alexa Fluor 488 anti-GST; buffer, salt, pH and temperature not stated; high values mean tight binding; most listed sequences are background and not binding sites; double strand, one strand shown", "units": {"binding signal": "E-score"}}
{"sequence": "GCGTGCTA", "binding signal": 0.151}
{"sequence": "GGGACAGA", "binding signal": -0.0712}
{"sequence": "ATCGGGTC", "binding signal": 0.118}
{"sequence": "AGGAGATG", "binding signal": -0.0488}
{"sequence": "CCTTGGGA", "binding signal": -0.0162}
{"sequence": "ATATGACA", "binding signal": 0.092}
{"sequence": "AAGGCGTA", "binding signal": 0.0219}
{"sequence": "GACCTCCA", "binding signal": -0.224}
{"sequence": "ACTTCATC", "binding signal": -0.162}
{"sequence": "TCCACCCA", "binding signal": -0.0413}
{"sequence": "CCTTTTTC", "binding signal": -0.233}
{"sequence": "CAGTCGAA", "binding signal": -0.189}
{"sequence": "ACGAGGTA", "binding signal": -0.058}
{"sequence": "GATATATC", "binding signal": -0.0568}
{"sequence": "GTTTGTAA", "binding signal": -0.0562}
{"sequence": "AACCGCCT", "binding signal": -0.107}
{"sequence": "GTGCAGAA", "binding signal": -0.00213}
{"sequence": "ATACTGAA", "binding signal": -0.0682}
{"sequence": "GAATGCCA", "binding signal": -0.277}
{"sequence": "GGTTACTA", "binding signal": -0.0459}
{"sequence": "ATATCTCA", "binding signal": -0.037}
{"sequence": "AAGTAAGG", "binding signal": 0.0669}
{"sequence": "GAACCAGA", "binding signal": -0.223}
{"sequence": "GGACGCTA", "binding signal": 0.017}
{"sequence": "CCTATAAG", "binding signal": 0.0586}
{"sequence": "GGTTACCA", "binding signal": -0.137}
{"sequence": "TGACTGAA", "binding signal": -0.145}
{"sequence": "GGCCCGAA", "binding signal": -0.0868}
{"sequence": "GTACGTAC", "binding signal": 0.0316}
{"sequence": "CAAACCTA", "binding signal": -0.173}
{"sequence": "CCCACGGA", "binding signal": 0.161}
{"sequence": "CGGGAAAG", "binding signal": -0.125}
{"sequence": "GGCCATCA", "binding signal": -0.131}
{"sequence": "ATCCGTGA", "binding signal": 0.0106}
{"sequence": "GCCTAAAC", "binding signal": -0.0818}
{"sequence": "GATAATCC", "binding signal": 0.0206}
{"sequence": "CCCGTTCA", "binding signal": -0.0143}
{"sequence": "AGAGGGAT", "binding signal": 0.0015}
{"sequence": "AGAAGTGA", "binding signal": 0.0607}
{"sequence": "CGCTACCG", "binding signal": -0.0582}
{"sequence": "AAGAGCCT", "binding signal": -0.187}
{"sequence": "ACTGTTGC", "binding signal": -0.0885}
{"sequence": "AGTGCGGA", "binding signal": 0.161}
{"sequence": "ACCAATGA", "binding signal": -0.0267}
{"sequence": "CTGACAGC", "binding signal": -0.15}
{"sequence": "AAATGCTC", "binding signal": -0.321}
{"sequence": "AAGGTAGG", "binding signal": 0.0049}
{"sequence": "AGCGGACC", "binding signal": -0.228}
{"sequence": "CGGCCCAG", "binding signal": -0.124}
{"sequence": "AATCACGC", "binding signal": -0.0813}
{"sequence": "CGGGTTGC", "binding signal": -0.0298}
{"sequence": "AGGGTACC", "binding signal": 0.106}
{"sequence": "CTCACTGC", "binding signal": -0.175}
{"sequence": "CTCGAGGC", "binding signal": 0.0234}
{"sequence": "CATGTAGC", "binding signal": -0.118}
{"sequence": "CTGTCAAC", "binding signal": -0.0733}
{"sequence": "CTAATATC", "binding signal": -0.0841}
{"sequence": "CGCACCTC", "binding signal": 0.074}
{"sequence": "CGGCCTCC", "binding signal": -0.109}
{"sequence": "CCCGTGGC", "binding signal": 0.0777}
{"sequence": "CCTACCCG", "binding signal": 0.183}
{"sequence": "TACCCTCA", "binding signal": 0.153}
{"sequence": "AGTGATGA", "binding signal": 0.022}
{"sequence": "AAGGGATT", "binding signal": -0.169}
{"sequence": "ATGAAATC", "binding signal": -0.0546}
{"sequence": "ATTTCCCC", "binding signal": -0.213}
{"sequence": "ATCTCAAT", "binding signal": -0.258}
{"sequence": "AGAACTGC", "binding signal": -0.0404}
{"sequence": "CCAGGCCC", "binding signal": -0.144}
{"sequence": "CCAACATC", "binding signal": -0.0552}
{"sequence": "GATAGACC", "binding signal": -0.0537}
{"sequence": "AATTTGGT", "binding signal": -0.123}
{"sequence": "CGATATTC", "binding signal": -0.128}
{"sequence": "CGATTCGA", "binding signal": -0.0415}
{"sequence": "ATCTAGAA", "binding signal": -0.116}
{"sequence": "ACAATTAC", "binding signal": -0.065}
{"sequence": "TATTGAAA", "binding signal": -0.124}
{"sequence": "TATGGGAA", "binding signal": 0.00536}
{"sequence": "CAGGGGTC", "binding signal": 0.242}
{"sequence": "GGTTTACA", "binding signal": 0.16}
{"sequence": "ACCACATA", "binding signal": 0.0781}
{"sequence": "ATCGCAAG", "binding signal": -0.118}
{"sequence": "ACAAGGCC", "binding signal": -0.11}
{"sequence": "CTTGGACA", "binding signal": 0.0848}
{"sequence": "ACGTAGCC", "binding signal": -0.0518}
{"sequence": "ACCAGCAC", "binding signal": 0.206}
{"sequence": "TAGCGTCA", "binding signal": 0.122}
{"sequence": "AAGGTTGT", "binding signal": -0.145}
{"sequence": "AAGTACGC", "binding signal": -0.0304}
{"sequence": "TAGATTGA", "binding signal": -0.102}
{"sequence": "GAGGCAGA", "binding signal": -0.14}
{"sequence": "CAATCTAA", "binding signal": -0.2}
{"sequence": "TCGTGCCA", "binding signal": -0.0599}
{"sequence": "ACTGTACA", "binding signal": 0.223}
{"sequence": "GTCTCAAC", "binding signal": -0.0228}
{"sequence": "GCCTCCCA", "binding signal": -0.122}
{"sequence": "AGGCGGTG", "binding signal": 0.28}
{"sequence": "ACTTGTGA", "binding signal": 0.0998}
{"sequence": "ACCGTAGT", "binding signal": -0.0171}
{"sequence": "AGCACATC", "binding signal": -0.264}
{"sequence": "AGACTGGG", "binding signal": -0.132}
{"sequence": "ACCCCAAT", "binding signal": 0.266}
{"sequence": "TAGGTAAA", "binding signal": -0.0362}
{"sequence": "ACGACGCC", "binding signal": 0.101}
{"sequence": "GCTTATTA", "binding signal": 0.00272}
{"sequence": "AACGCTTA", "binding signal": -0.0439}
{"sequence": "ACTGACGG", "binding signal": -0.00298}
{"sequence": "GACGGATA", "binding signal": 0.15}
{"sequence": "CCAGTCAA", "binding signal": -0.0509}
{"sequence": "AATTGCCA", "binding signal": -0.112}
{"sequence": "CTGATTGA", "binding signal": -0.153}
{"sequence": "CTTTCACC", "binding signal": -0.184}
{"sequence": "CTACTGAA", "binding signal": -0.17}
{"sequence": "CGCCTTAG", "binding signal": 0.0237}
{"sequence": "ATTGTCGA", "binding signal": -0.0563}
{"sequence": "CTCGTTTC", "binding signal": -0.192}
{"sequence": "CAAAAGGA", "binding signal": -0.0462}
{"sequence": "CCTAAAAC", "binding signal": -0.0695}
{"sequence": "AAAGTACG", "binding signal": -0.127}
{"sequence": "TGCTGCAA", "binding signal": 0.0295}
{"sequence": "GATACAAC", "binding signal": 0.0689}
{"sequence": "ACGTTAGT", "binding signal": -0.0661}
{"sequence": "ACGTTAGG", "binding signal": -0.00652}
{"sequence": "CTCGAGAG", "binding signal": -0.00792}
{"sequence": "ACGATTAT", "binding signal": -0.138}
{"sequence": "GGTAGGCA", "binding signal": -0.0448}
{"sequence": "TAATACCA", "binding signal": 0.0686}
{"sequence": "TCGGACAA", "binding signal": -0.27}
{"sequence": "CGTGACAG", "binding signal": 0.0961}
{"sequence": "AGCAGTAC", "binding signal": -0.101}
{"sequence": "ATGAAAGG", "binding signal": -0.0917}
{"sequence": "CGGGGAAA", "binding signal": 0.0196}
{"sequence": "ACCGACGG", "binding signal": 0.0968}
{"sequence": "CGGGAACG", "binding signal": -0.322}
{"sequence": "CACCCCGC", "binding signal": 0.337}
{"sequence": "ACCGAATA", "binding signal": 0.155}
{"sequence": "AGGGAGTA", "binding signal": 0.178}
{"sequence": "GGAAAGAA", "binding signal": -0.113}
{"sequence": "AGCTGGCA", "binding signal": -0.171}
{"sequence": "TCGTTCCA", "binding signal": -0.303}
{"sequence": "AACATCCC", "binding signal": 0.0126}
{"sequence": "GGGCATGA", "binding signal": -0.105}
{"sequence": "AATAGAGA", "binding signal": -0.343}
{"sequence": "CACATGGA", "binding signal": 0.128}
{"sequence": "CAATAGTA", "binding signal": -0.0222}
{"sequence": "ATCCCACG", "binding signal": 0.0025}
{"sequence": "ATTAGAAC", "binding signal": -0.126}
{"sequence": "CCAGAGCA", "binding signal": 0.0859}
{"sequence": "AGTGAATA", "binding signal": -0.0782}
{"sequence": "CTAGTGCA", "binding signal": 0.0626}
{"sequence": "ACTTGCCC", "binding signal": -0.0279}
{"sequence": "GGCGCTCA", "binding signal": -0.19}
{"sequence": "CGGAACCC", "binding signal": 0.234}
{"sequence": "TTAATCAA", "binding signal": -0.0342}
{"sequence": "CCGGGTAG", "binding signal": 0.169}
{"sequence": "CACGCGAC", "binding signal": 0.26}
{"sequence": "GTTCGCAA", "binding signal": -0.108}
{"sequence": "ATGTATAC", "binding signal": 0.0564}
{"sequence": "AACCGGGG", "binding signal": 0.127}
{"sequence": "GATGCCGA", "binding signal": -0.154}
{"sequence": "GACCTAGC", "binding signal": -0.16}
{"sequence": "ATCACCAG", "binding signal": -0.0799}
{"sequence": "CGCCCGAA", "binding signal": -0.0346}
{"sequence": "GTTGGAAA", "binding signal": -0.0616}
{"sequence": "CCGGCCTC", "binding signal": -0.148}
{"sequence": "CCCGCGTC", "binding signal": 0.193}
{"sequence": "CGATCTCC", "binding signal": -0.12}
{"sequence": "ACGGATGC", "binding signal": -0.136}
{"sequence": "GGCGTCCC", "binding signal": 0.0274}
{"sequence": "CCTCGGCC", "binding signal": -0.0831}
{"sequence": "ATGGCTCC", "binding signal": -0.166}
{"sequence": "ACCTGATC", "binding signal": 0.0832}
